This is one part of the list.
B1: PhoQ; a variant is named by its letters at X, in order, P23837 (parent)
chain: MKKLLRLFFPLSLRVRFLLATAAVVLVLSLAYGMVALIGYSVSFDKTTFRLLRGESNLFYTLAKWENNKLHVELPENIDKQSPTMTLIYDENGQLLWAQRDVPWLMKMIQPDWLKSNGFHEIEADVNDTSLLLSGDHSIQQQLQEVREDDDDAEMTHSVAVNVYPATSRMPKLTIVVVDTIPVELKSSYMVWSWFIYVLSANLLLVIPLLWVAAWWSLRPIEALAKEVRELEEHNRELLNPATTRELTSLVRNLNRLLKSERERYDKYRTTLTDLTHSLKTPLXXLQXXLRSLRSEKMSVSDAEPVMLEQISRISQQIGYYLHRASMRGGTLLSRELHPVAPLLDNLTSALNKVYQRKGVNISLDISPEISFVGEQNDFVEVMGNVLDNACKYCLEFVEISARQTDEHLYIVVEDDGPGIPLSKREVIFDRGQRVDTLRPGQGVGLAVAREITEQYEGKIVAGESMLGGARMEVIFGRQHSAPKDE

Variants of: B1
Experiment: enrichment ratio after two sorts for PhoP signalling (ratio (wild type AVST 3.29)); higher = more functional
Conditions: with PhoP (E. coli)

Variant	enrichment ratio
EGWV	≤ 0.25
ASEC	≤ 0.25
EFPE	≤ 0.25
TEKL	≤ 0.25
DHKV	≤ 0.25
PVVN	≤ 0.25
RVVR	≤ 0.25
PMIT	≤ 0.25
FVPI	≤ 0.25
RQAN	≤ 0.25
TLII	≤ 0.25
FWGI	≤ 0.25
EFWK	≤ 0.25
QSPC	≤ 0.25
IQYE	≤ 0.25
ANDN	≤ 0.25
WGYW	≤ 0.25
TGLR	1.32
ELRP	≤ 0.25
FGFR	≤ 0.25
DGAM	≤ 0.25
LDGG	≤ 0.25
FDWV	0.293
PLRI	≤ 0.25
LKDR	≤ 0.25
HSNS	≤ 0.25

Variant	enrichment ratio
PSWP	≤ 0.25
TEWH	35.2
EKYT	≤ 0.25
LAKY	≤ 0.25
FGYG	≤ 0.25
EYSG	≤ 0.25
RVRT	≤ 0.25
AESI	25.1
QPNS	≤ 0.25
IYML	≤ 0.25
SFRP	≤ 0.25
QQSA	≤ 0.25
VIWK	≤ 0.25
AVHM	≤ 0.25
RQAT	≤ 0.25
AMPC	≤ 0.25
VMRW	≤ 0.25
WPDC	≤ 0.25
TMMS	14.5
GKYL	≤ 0.25
WCGL	≤ 0.25
HLHL	≤ 0.25
RNDI	≤ 0.25
NTLK	≤ 0.25
PWDC	≤ 0.25
VNDH	≤ 0.25

Variant	enrichment ratio
NVHV	≤ 0.25
VWEC	≤ 0.25
VPTY	≤ 0.25
TCFA	≤ 0.25
EGFI	≤ 0.25
IIGN	≤ 0.25
SPHT	≤ 0.25
YAYE	≤ 0.25
IMGG	≤ 0.25
NEDF	≤ 0.25
IKLG	≤ 0.25
WAYW	≤ 0.25
IEHF	≤ 0.25
PSHV	≤ 0.25
GLSM	12.3
LRYL	≤ 0.25
KGRC	≤ 0.25
PRAK	≤ 0.25
QGWS	20.8
YPIP	≤ 0.25
VAYY	≤ 0.25
TRMK	≤ 0.25
ESRC	≤ 0.25
FEND	≤ 0.25
KTEA	≤ 0.25
YPCC	≤ 0.25

Variant	enrichment ratio
SAGM	12.9
PPCD	≤ 0.25
DWFP	≤ 0.25
VSIM	5.33
HFHP	≤ 0.25
WVLM	≤ 0.25
YDRN	≤ 0.25
NALH	≤ 0.25
IKCL	≤ 0.25
AMHG	≤ 0.25
RWNT	≤ 0.25
DQAL	≤ 0.25
NDVM	≤ 0.25
SWFL	≤ 0.25
ISHM	≤ 0.25
MGSW	≤ 0.25
DESF	≤ 0.25
GVTM	8.91
NLLS	≤ 0.25
RNIV	≤ 0.25
PDLY	0.513
SDER	≤ 0.25
YRWE	≤ 0.25
IGVY	≤ 0.25
YHVY	≤ 0.25
TQLT	18.8

Variant	enrichment ratio
GADQ	≤ 0.25
TVSR	11.1
IIRF	≤ 0.25
YKLY	≤ 0.25
EILM	≤ 0.25
DWKN	≤ 0.25
EAGC	≤ 0.25
FKPS	≤ 0.25
AAVW	≤ 0.25
PDNA	≤ 0.25
IHIS	≤ 0.25
GLCF	5.36
TPAM	≤ 0.25
IEDM	≤ 0.25
VHDM	≤ 0.25
GLCD	≤ 0.25
ARTY	≤ 0.25
GWNC	≤ 0.25
DVCG	≤ 0.25
ELSS	≤ 0.25
AQEP	≤ 0.25
RKVG	≤ 0.25
QNCH	≤ 0.25
MTVF	2.09
WEKY	≤ 0.25
SNQA	≤ 0.25

Variant	enrichment ratio
IIVM	≤ 0.25
EGDR	≤ 0.25
EYNK	≤ 0.25
WYCH	≤ 0.25
HGSH	≤ 0.25
TYPY	≤ 0.25
LPKE	≤ 0.25
ADTN	≤ 0.25
SQPK	≤ 0.25
PLLG	≤ 0.25
DQRD	≤ 0.25
PQEN	≤ 0.25
SSGV	8.14
YWAC	≤ 0.25
LGRM	≤ 0.25
GYAG	≤ 0.25
DILW	≤ 0.25
FFLM	≤ 0.25
FAAI	≤ 0.25
YIQF	0.38
PCDV	≤ 0.25
VTPT	≤ 0.25
THLT	1.96
